In the supplement of paper PMC7826260:
The other results are listed elsewhere or left out. One pool of 16,384 single-stranded DNAs met each Rep nickase domain in vitro (1 h at 37 °C, 3 µM enzyme); the outer parts of the 90-letter strands are left off. Values are log2 of uncut reads against the no-enzyme pool; uncut sequences lie near 0, cut ones below; no hit call is given. Shares of all reads are compared; values above 0 arise when much of the pool is cut.

Tests used:
Assay in all cases: uncleaved DNA left, log2 of reads against the no-enzyme library (log2 ratio); higher = less cleavage (more negative = more Rep cleavage of the k-mer); sequences stand for … in CTCGTCCG…ACCGGAGA
[1] = tested on: T1, Rep nickase domain of Muscovy duck circovirus
T1 sequence (Rep 1-111, printed without the tag): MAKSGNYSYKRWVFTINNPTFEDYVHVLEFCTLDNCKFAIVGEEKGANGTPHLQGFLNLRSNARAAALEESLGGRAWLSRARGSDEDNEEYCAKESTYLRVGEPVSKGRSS
Description: (§1)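 A pool of 90-nt single-stranded DNAs with seven random bases just before the constant AC of the nick site (name = the seven bases) was cut by 3 µM recombinant His6-SUMO-tagged Rep nickase domain (300 nM DNA, 50 mM HEPES pH 8.0, 50 mM NaCl, 1 mM MnCl2, 1 h, 37 °C, three replicates). Uncut DNA was amplified and sequenced.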

[2] = tested on: T2, Rep nickase domain of banana bunchy top virus
T2 sequence (Rep 1-94, printed without the tag): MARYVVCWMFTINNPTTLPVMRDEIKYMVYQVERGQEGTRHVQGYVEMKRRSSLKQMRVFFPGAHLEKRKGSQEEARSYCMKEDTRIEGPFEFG
Description: as §1

[3] = tested on: T3, Rep nickase domain of cabbage leaf curl virus
T3 sequence (Rep 1-116, printed without the tag): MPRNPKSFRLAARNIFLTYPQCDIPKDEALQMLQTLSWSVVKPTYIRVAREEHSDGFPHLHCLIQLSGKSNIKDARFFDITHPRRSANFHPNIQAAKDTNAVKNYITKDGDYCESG
Description: as §1

[4] = tested on: T4, Rep nickase domain of chickpea chlorotic dwarf virus
T4 sequence (Rep 1-124, printed without the tag): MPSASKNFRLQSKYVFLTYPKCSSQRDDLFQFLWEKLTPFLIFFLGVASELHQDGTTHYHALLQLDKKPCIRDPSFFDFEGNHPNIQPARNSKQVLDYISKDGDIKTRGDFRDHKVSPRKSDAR
Description: as §1

[5] = tested on: T5, Rep nickase domain of faba bean necrotic yellows virus
T5 sequence (Rep 1-98, printed without the tag): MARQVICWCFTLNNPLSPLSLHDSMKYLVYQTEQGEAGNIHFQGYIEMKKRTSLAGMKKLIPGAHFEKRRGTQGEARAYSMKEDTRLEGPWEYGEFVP
Description: as §1

[6] = tested on: T6, Rep nickase domain of maize striate mosaic virus
T6 sequence (Rep 1-117, printed without the tag): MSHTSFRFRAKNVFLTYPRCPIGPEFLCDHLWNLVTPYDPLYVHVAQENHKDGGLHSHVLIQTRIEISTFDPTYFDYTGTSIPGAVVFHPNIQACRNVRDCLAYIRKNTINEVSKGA
Description: as §1

[7] = tested on: T7, Rep nickase domain of porcine circovirus 2
T7 sequence (Rep 2-116, printed without the tag): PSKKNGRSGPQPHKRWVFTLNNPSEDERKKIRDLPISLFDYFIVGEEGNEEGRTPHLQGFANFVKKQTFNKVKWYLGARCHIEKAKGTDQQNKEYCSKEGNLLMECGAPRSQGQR
Description: as §1

[8] = tested on: T8, Rep nickase domain of tomato golden mosaic virus
T8 sequence (Rep 1-124, printed without the tag): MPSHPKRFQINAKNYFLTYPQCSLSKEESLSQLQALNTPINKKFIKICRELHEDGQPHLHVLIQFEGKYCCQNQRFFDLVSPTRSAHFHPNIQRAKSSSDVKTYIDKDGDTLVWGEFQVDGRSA
Description: as §1

[9] = tested on: T9, Rep nickase domain of tomato yellow leaf curl virus
T9 sequence (Rep 1-136, printed without the tag): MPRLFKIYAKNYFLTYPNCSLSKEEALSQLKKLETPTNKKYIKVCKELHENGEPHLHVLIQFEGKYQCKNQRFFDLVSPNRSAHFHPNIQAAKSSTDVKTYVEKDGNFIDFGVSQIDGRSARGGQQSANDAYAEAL
Description: as §1

[10] = tested on: T10, Rep nickase domain of wheat dwarf virus
T10 sequence (Rep 1-137, printed without the tag): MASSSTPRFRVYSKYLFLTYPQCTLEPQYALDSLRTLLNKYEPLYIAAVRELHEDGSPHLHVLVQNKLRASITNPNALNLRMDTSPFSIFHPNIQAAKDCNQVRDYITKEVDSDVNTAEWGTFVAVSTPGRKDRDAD
Description: as §1

Sequence	uncleaved DNA left (log2) [1]	uncleaved DNA left (log2) [2]	uncleaved DNA left (log2) [3]	uncleaved DNA left (log2) [4]	uncleaved DNA left (log2) [5]	uncleaved DNA left (log2) [6]	uncleaved DNA left (log2) [7]	uncleaved DNA left (log2) [8]	uncleaved DNA left (log2) [9]	uncleaved DNA left (log2) [10]
GCCGGTG	-0.0682	-0.177	-0.309	-0.185	-0.1	-0.261	0.00766	-0.151	-0.144	-0.132
ATAGAAA	0.189	0.189	0.134	0.058	0.119	-0.497	0.227	0.0508	0.125	0.0965
CCCTTCC	-0.0633	-0.0581	0.0518	-0.197	0.0142	-0.487	-0.0616	-0.148	-0.107	0.0976
AAGAGTC	0.0879	0.155	0.243	0.313	0.13	0.156	0.129	0.187	0.151	0.203
CAAATAC	0.0246	-0.123	-0.206	-1.07	-0.0125	-0.952	0.101	-0.00289	-0.0367	-0.0424
TAAATTT	-1.19	-0.911	-4.8	-3.66	-0.108	-3.39	-4.04	-4.26	-0.175	-4.02
CGCCTTA	-0.0722	0.0569	0.129	-0.623	0.102	-0.237	-0.183	0.0594	0.0631	-0.0813
TTGAGGT	0.174	0.0108	0.349	0.829	-0.026	0.955	0.0574	0.00335	-0.0782	-0.049
GGCGCCT	-0.112	-0.0661	0.0605	0.471	-0.163	1.43	0.0184	-0.13	-0.151	-0.0094
TTTGACA	0.0769	0.0595	0.229	-0.824	0.0918	0.16	0.145	0.0822	0.152	0.0645
AAGCCAC	-0.0134	0.0284	-0.0463	-0.558	-0.00716	-0.293	-0.0169	-0.0512	-0.0326	0.036
AGACCCT	0.104	0.126	0.957	1.73	0.0708	2.37	0.137	0.0613	0.108	0.245
CACTTTC	-0.143	-0.0426	-0.0591	-0.691	-0.0364	-0.854	-1.23	-0.0423	0.0142	0.0174
ATCTGTT	-2.33	-0.685	-0.249	-0.847	-0.214	0.605	-3.73	-0.196	-0.0459	-0.277
CGCCTAC	-0.027	-0.0046	-0.194	-1.35	-0.023	-0.461	-0.16	-0.138	0.00431	0.0492
AACGACC	-0.00266	0.111	-0.0389	0.395	-0.0187	-0.0278	0.141	0.0604	-0.0535	0.0918
TCTTGGG	-0.0674	-0.0876	-0.661	-0.747	0.0608	-1.16	0.0831	0.0198	0.00576	-0.149
AACCGCA	-0.101	-0.0922	-0.386	-1.39	-0.0748	-1.09	-0.225	-0.124	-0.0234	-0.0425
GGAAGTC	0.157	0.152	0.578	1.46	0.057	1.95	0.24	0.032	0.0435	0.229
TGATTAG	0.036	0.13	-0.721	-0.362	0.18	-1.09	0.258	-0.0376	0.00266	-0.0119

Sequence	uncleaved DNA left (log2) [1]	uncleaved DNA left (log2) [2]	uncleaved DNA left (log2) [3]	uncleaved DNA left (log2) [4]	uncleaved DNA left (log2) [5]	uncleaved DNA left (log2) [6]	uncleaved DNA left (log2) [7]	uncleaved DNA left (log2) [8]	uncleaved DNA left (log2) [9]	uncleaved DNA left (log2) [10]
TGTCGTA	-0.0453	-0.0735	-0.0444	-0.783	0.00498	-0.599	-0.092	-0.0384	0.024	-0.0744
TGTCCGA	0.115	0.101	-0.0618	-0.0128	0.0278	-0.598	0.00833	-0.0277	-0.0439	0.158
CGTCGTC	0.0685	0.0249	-0.000863	-0.0715	0.0229	-0.443	0.0517	-0.133	0.084	0.0689
GATCAAC	0.014	0.013	0.239	0.108	-0.0723	0.788	0.0025	-0.0236	0.0748	0.0608
CGCCCGT	-0.0136	0.0277	-0.138	-0.262	0.00103	-0.362	0.0478	-0.0516	0.0526	0.0101
GATCGAT	-0.0355	-0.0663	0.141	0.542	0.0146	0.883	-0.103	0.0192	-0.0137	0.0686
GTAGGTC	0.199	0.151	0.577	1.03	-0.00288	1.68	0.071	0.181	0.191	0.225
TAGCGAC	-0.0386	-0.0562	-0.00332	0.524	-0.0372	0.851	-0.00207	0.00654	0.00923	-0.00408
TAATAAT	-4.12	-3.45	-4.68	-3.31	-1.19	-4.15	-4.37	-4.09	-3.61	-4.47
TCCGAGA	-0.0315	0.0298	0.843	1.6	-0.00409	2.12	0.0122	0.0399	-0.0117	0.0553
AATCTAG	-0.0155	0.00143	-0.732	-0.64	0.0752	-1.23	0.173	0.0176	0.0104	-0.0424
TGTTGCT	-0.538	-0.0223	-0.547	-0.987	0.0408	-0.89	-0.589	0.0654	0.0788	-0.146
TCAATTA	0.0871	-0.0706	-0.0731	-1.33	0.00211	-0.591	-0.164	-0.0265	-0.0312	-0.0918
ATTCTGT	-0.0584	-0.142	-0.18	-0.329	-0.0397	-0.337	-0.378	-0.145	-0.133	-0.0973
AGAATTA	0.0299	-0.0775	0.103	-0.836	-0.0185	-0.177	-0.223	0.0349	-0.0223	0.0188
GCGACAA	-0.0938	0.0908	0.241	1.16	-0.0456	1.67	0.123	0.0549	0.0417	0.0962
AGGGTAG	0.223	0.0661	-0.185	0.0808	0.11	-0.629	0.322	0.137	0.189	0.06
CTAAGAC	-0.00113	-0.102	-2.13	-2.64	-0.078	-0.788	0.114	-0.22	-0.0765	-0.335
GACTGAC	-0.0138	0.0126	-0.106	0.584	-0.152	0.445	0.15	0.0676	-0.0324	0.0796
CCGCGGT	0.0296	-0.0577	0.139	-0.302	0.103	-0.243	0.00124	0.0213	-0.0659	0.0184

Sequence	uncleaved DNA left (log2) [1]	uncleaved DNA left (log2) [2]	uncleaved DNA left (log2) [3]	uncleaved DNA left (log2) [4]	uncleaved DNA left (log2) [5]	uncleaved DNA left (log2) [6]	uncleaved DNA left (log2) [7]	uncleaved DNA left (log2) [8]	uncleaved DNA left (log2) [9]	uncleaved DNA left (log2) [10]
TGAATTC	0.0258	0.0789	0.309	0.45	-0.0776	0.137	0.0213	0.0525	-0.0158	0.169
CAACGCG	0.0267	0.0648	-0.863	-0.318	0.0618	-0.857	0.219	-0.0248	0.0377	-0.0422
TTCGGCC	-0.0139	-0.0169	0.0668	-0.0245	0.0644	-0.482	0.0518	-0.0147	0.0145	0.0326
GCAATAG	-0.019	-0.0115	-0.752	-0.454	0.031	-1.16	0.0928	-0.00196	-0.0181	-0.131
AGCGAGT	0.125	0.153	0.00394	0.627	0.0881	1.53	0.0465	0.123	0.125	0.157
TATGGCA	0.0415	0.0612	-0.152	-0.728	-0.00341	-0.821	-0.0058	0.0401	0.101	0.0368
CAAGCTT	-0.059	-0.11	-0.239	-0.83	0.196	1.43	0.0127	-0.0611	-0.00645	-0.101
TGACTAA	-0.0361	-0.0546	0.0393	0.314	-0.156	0.613	-0.0443	-0.191	-0.142	-0.0232
ATAGGCT	0.0441	0.00921	0.0276	0.687	-0.084	0.761	0.0942	0.125	-0.138	0.0604
GGAAGGC	-0.0567	-0.108	0.652	1.42	-0.0489	1.78	0.12	-0.0603	-0.0883	0.0463
CTTAAAT	0.118	0.0987	0.0224	-0.583	0.0732	-0.487	-0.232	0.0428	0.0415	0.137
GAACACT	0.0676	0.141	0.15	-1.98	0.159	1.32	0.0638	0.00186	0.124	0.106
ACTTGAA	-0.0852	-0.0254	-0.299	-0.287	-0.193	-1.03	-0.0507	-0.0849	-0.0625	-0.0137
GGGGCGG	0.0781	0.1	0.788	1.76	-0.0467	2.16	0.196	0.12	-0.129	0.0194
GTCCATC	-0.0852	0.0582	0.333	0.982	-0.0658	1.42	0.0341	0.0395	-0.0236	0.0895
CTTAAAC	0.00059	-0.0341	-0.0649	-0.566	-0.0641	-0.712	-0.00198	-0.033	-0.142	-0.0294
ATGCCAG	-0.00129	-0.0698	-0.845	-0.46	-0.103	-1.24	0.0553	-0.0608	-0.0752	-0.112
CGACGCA	0.0727	0.0773	0.00882	0.771	-0.0346	1.56	0.0102	-0.00442	0.0124	0.148
